This note sets out measurements from the supplement of paper PMC11417369.

± gives the standard deviation of the averaged measurements. This is one part of the list.

In the test the test system is PfAP2-LT AP2 domain (GST-tagged). Description: gcPBM binding intensity (ln(normalized median fluorescence intensity)); higher = stronger DNA binding. In outline: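 An Agilent 4 × 180k array of primer-extended double-stranded 36-bp intergenic genomic probes, with negative controls, was incubated for 1 h with GST-tagged P. falciparum DNA-binding domains expressed in E. coli. Alexa488 anti-GST antibody detected bound protein, scanned at 488 nm. Binding intensity is the highest Masliner-normalised natural-log median intensity across replicate spots of either probe orientation.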
As to “AAATTATATATATTTACATGCAATATAATGAAATAA [TGCATGCA_site229]”, the “gcPBM binding intensity (ln)” value turned out to be 8.66 ± 0.49.
The same measure for “ATATATATATCATATTGTACATATTATTGTATAATC [XGTACX_site5020]”: 8.98 ± 0.42; for “TTGTTTTTAAGAAAAACACACACTCCTGTTATTTTA [CACACA_site9230]”: 8.88 ± 0.43; for “ATTTTGTATATATTTTGTACATATTTTGTATATATT [XGTACX_site885]”: 9.04 ± 0.42.
To “AAATATTATACAAAAAAAAAAAAAAAAAAAATATAT [CACACA_negctrl_site52]” belongs 8.62 ± 0.51; to “ATATAAACATGTTTGTGTACGTAATATGAAAAATAA [XGTACX_site8157]”, 8.93 ± 0.44; to “GTATGTATAATATACACACTCACAAGCATTCAAATA [CACACA_site267]”, 9.07 ± 0.37.
The same measure for “TGTATGTTTATTTATCGTACATATATATATATATAT [XGTACX_site7315]”: 9.2 ± 0.4.
Consider “TTTTATATATTATATACACACATATATATATATATA [CACACA_site2999]”, for which the “gcPBM binding intensity (ln)” value came out at 9.06 ± 0.3.
To “AATAAATAAATATATACACACATATATCTGTACATA [CACACA_site9034]” belongs 9.43 ± 0.39; to “AGGAAAAAAAAAATGTGTACTTAAAAAAAAAAAATT [XGTACX_site1471]”, 8.51 ± 0.65; to “CGTTTATATTTTAACTGTACTCAAAAAGTGCATTGT [XGTACX_site6072]”, 8.65 ± 0.42.
As to “TTTTATCATATTTATTGTACACATAATATACATATC [XGTACX_site1145]”, the “gcPBM binding intensity (ln)” value amounted to 8.99 ± 0.47.
To “AAATTAGAATTAGGAACACACATATTTATATTTATA [CACACA_site7450]” belongs 8.68 ± 0.49; to “TTTATTCTCCGACACACACACATATATTTATTTATA [CACACA_site7377]”, 9.42 ± 0.33; to “ATATATAAAAAATGTGGTACATTCATTTATTATACA [XGTACX_site3495]”, 8.76 ± 0.57.
To “CATTTTATAAAAAGCACACATATAGTTATATGCACA [CACACA_site3691]” belongs 8.85 ± 0.36; to “TAAATTATAATAAATACACACAAATTATAATTCTAT [CACACA_site3942]”, 8.79 ± 0.37.
To “TATATATATATACATTGTACATTATTGATTATAACA [XGTACX_site1678]” belongs 9.06 ± 0.33; to “AATATTTTATATAAATGTACATTTATGAATAATATA [XGTACX_site8477]”, 8.44 ± 0.44.
In the case of “GTGCTAAAAGTATATGCACACACATATATATGCACA [CACACA_site8472]”, the “gcPBM binding intensity (ln)” value amounted to 9.42 ± 0.31.
To “ACAAAGTAAAATAATGCATGTAGGTATACATAATTA [TGCATGCA_site607]” belongs 8.98 ± 0.4; to “TGTTCATTTATTTACTTACACACTTTATATATGTGG [CACACA_site1410]”, 9.23 ± 0.49.
To “TAAAAGTAGATATATACACACATAAATATAGATGTA [CACACA_site6457]” belongs 9.07 ± 0.41.
To “ACATATTTCCAATAATGTACATACAAAATAAGAATG [XGTACX_site2659]” belongs 8.79 ± 0.45; to “TTTTTTTCTTTTTTTTGTACTCATACATACTATCAT [XGTACX_site607]”, 8.78 ± 0.58; to “GTAGTAATAAATCTAGTGCATTATATATAACAAAAA [GTGCAC_site9803]”, 8.85 ± 0.54.
For “AAAATATATCAAAATAGTACATAATTTTTTAAGAAT [XGTACX_site3515]”, the “gcPBM binding intensity (ln)” value was determined as 8.64 ± 0.54.
The same measure for “AAAAATGTGCACACGCGTACACACAAAAAAAGAAAA [XGTACX_site4097]”: 9.42 ± 0.3; for “AGTTATGCATCTTAGGTGCTATGCCCAATTTATTTT [GTGCAC_site9977]”: 8.85 ± 0.49.
Regarding “TTGCCTTAAAAAGGAACACACATGCTTTTTTTAGTT [CACACA_site938]”, the “gcPBM binding intensity (ln)” value amounted to 8.77 ± 0.47.
The same measure for “AAAAAAAAAAAAAATGCACACATATATTTCCATATA [CACACA_site8416]”: 8.95 ± 0.29; for “AACTTACTCTTTACAAGTACGTAAAAGAAATAGAAA [XGTACX_site1782]”: 8.49 ± 0.51.
The same measure for “AATAAAGCAATAAATACACACATATATATATATATA [CACACA_site2934]”: 9.955 ± 0.0071.
Turning to “TATATAAAAAATAGGTGGTCAACTTAAATATTTTAT [XGTACX_site4495]”, the “gcPBM binding intensity (ln)” value was 8.63 ± 0.42.
Turning to “TATTGCCCTTGACACACACACATATAAATAAATATA [CACACA_site7220]”, the “gcPBM binding intensity (ln)” value is 9.34 ± 0.44.
The same measure for “TAAGGTTAAATAATATGTACATATTATTATATATAT [XGTACX_site6953]”: 8.66 ± 0.39; for “TTATGGGACTCAAATACATGCAAAAATATTTTTAAG [TGCATGCA_site559]”: 8.5 ± 0.51; for “AAATATGTATATATATATATATATATATATATATAT [GTGCAC_negctrl_site335]”: 9.97 ± 0.29.
For the sequence “TTAAACCGTGGGAGCACACACACACCCAGACACATA [CACACA_site4337]”, the “gcPBM binding intensity (ln)” value was 9.7 ± 0.31.
The same measure for “GTATATATACATAAATGTACATATATATAAAAAATG [XGTACX_site3271]”: 8.91 ± 0.41; for “AATATATAAGTCTACTGTACCCAAAATAAAATTTAT [XGTACX_site8727]”: 8.7 ± 0.35.
The same measure for AAATAAGAACATAGAATGCACTTTTTTTTTTTTTCC: 8.49 ± 0.5.
The same measure for “AACATTATAAGACACACACACACATATATAAATATA [CACACA_site6622]”: 10.2 ± 0.38.
For “ATATATTTATATATTGCACACAAAAAAAAAAAAAAA [CACACA_site8468]”, the “gcPBM binding intensity (ln)” value stood at 8.76 ± 0.28.
To “AAATATAATAAAATGACACACGCATATATATATATA [CACACA_site8900]” belongs 9.775 ± 0.064.
To “ATATATCCAAATAGATTACATATATATATATAGATA [TGCATGCA_negctrl_site277]” belongs 8.73 ± 0.35.
The same measure for “GGATATATGAAACATATTGAAAAACCGTTTAGTACA [CACACA_negctrl_site132]”: 8.83 ± 0.51; for “GTAATTATATACATACGTACATACACATATGTATAT [XGTACX_site4149]”: 9.03 ± 0.41; for “TTATATGAAAATTATTGTACAATCTATAAAAAAAAT [XGTACX_site4194]”: 8.41 ± 0.42.
With “TTACTATGTAAACACACATGCAATATATGTTAAGCC [TGCATGCA_site253]”, the “gcPBM binding intensity (ln)” value is 9.07 ± 0.4.
To “TAATAATCAAACTATACACACATAAATAAATATATA [CACACA_site156]” belongs 9.04 ± 0.4.
Take “AAGGAAATAAGAAAAAGTACACATAAGTATATAACA [XGTACX_site1173]”: the “gcPBM binding intensity (ln)” value was determined as 9.04 ± 0.45.
To “CACGTGTAAATAGTTTTACAATATCTCGATATGTAT [CACACA_negctrl_site785]” belongs 8.83 ± 0.41; to “TGTCAAAATATGTATACACACAATTTTTTTTTTTTT [CACACA_site2465]”, 8.8 ± 0.4.
To ATTCATTTACCAATGGTGCAATATATTTTTATAATG belongs 8.63 ± 0.38; to “TATATTACTTATATTTGTACACAGAAATATAAATCA [XGTACX_site13]”, 8.44 ± 0.35.
To “TAATAAATAAAATAGAGTACAGGGATTTCATTAAAT [XGTACX_site8979]” belongs 8.69 ± 0.52; to “TTTTTCATAAGAAGCACACAAAAAATGATAGAGAAT [CACACA_site1417]”, 8.94 ± 0.37.
In the case of “TAATATGCATAAAATTGTACAAACTTACATATAATA [XGTACX_site2752]”, the “gcPBM binding intensity (ln)” value was found to be 8.92 ± 0.45.
To “TTTTCTTGACCTATTATTCTTCTCATAGTATAATAT [GTGCAC_negctrl_site641]” belongs 8.78 ± 0.4; to “TTCATAGAATTATATATTTTAAAAAAAAAAATAATT [CACACA_negctrl_site175]”, 8.12 ± 0.42.
To “TTTTTTATAGGACATGCATGTTGTAGAGCTGTATAT [TGCATGCA_site704]” belongs 8.8 ± 0.39; to “AATATATTTTAATATACACACATATATGCTCTTTAA [CACACA_site9371]”, 8.88 ± 0.5; to “TTATTTTTTTTGTGTTGTACAATTTATTACTACTAA [XGTACX_site346]”, 8.83 ± 0.47.
The same measure for “AAACAAATATGTAGCACACATTCACATAATATATTT [CACACA_site2335]”: 9.08 ± 0.44; for “TTATTTATGTGTAGGGCATGCAATCGTGTTTTTAAA [TGCATGCA_site735]”: 8.82 ± 0.34.
“GTATTTATAATACGGCGTACATAAAAAAAAAAAAAA [XGTACX_site3705]”: the “gcPBM binding intensity (ln)” value turned out to be 8.54 ± 0.46.
Take “TGAAATACGAATTATTGTACTTATGTGTAAGATGGC [XGTACX_site4472]”: the “gcPBM binding intensity (ln)” value came to 8.83 ± 0.45.
The same measure for “AAAGAAAGTACCTTCACACATATAAGAATATAATAT [CACACA_site5214]”: 8.85 ± 0.49.
To “AAAAAAAAAATATATTGTACAAATAGATATGTCAAT [XGTACX_site122]” belongs 8.92 ± 0.4; to “AAAAAAAAAAAAAAAAGTACACAGTAGAATTAAATG [XGTACX_site1843]”, 8.73 ± 0.48; to “TTTTTTTTTTAATTAACACACATAAATATATATATA [CACACA_site3275]”, 8.6 ± 0.38.
The same measure for “ATAAGTAAATTAGATACACACATGATATCATACATA [CACACA_site1623]”: 9.03 ± 0.45; for “GAACAATAAATAAAAAAAATAAAAATAAAAATAAAA [TGCATGCA_negctrl_site35]”: 8.57 ± 0.75; for “AGAAAAAAATAATGTACACACACATAGATGTTTATA [CACACA_site4271]”: 9.2 ± 0.36.
“TCAATAATAACAAATGAACACACATATATATGAGCA [CACACA_site8663]”: the “gcPBM binding intensity (ln)” value stood at 9.06 ± 0.38.
As for “AATATATTTGTGTATGTGCGCAGTGTGTAATTTATT [GTGCAC_site9765]”, the “gcPBM binding intensity (ln)” value was found to be 9.39 ± 0.28.
Consider “CATCTCATATTTTGAAGTACTAAGAAAAGATATAAA [XGTACX_site6867]”, for which the “gcPBM binding intensity (ln)” value was 8.38 ± 0.44.
To “ACGTAATTAATTCATCAGATATAATTAATAATAATA [XGTACX_negctrl_site550]” belongs 8.66 ± 0.36; to “ACTAAAGTGTATCACTGTACAATTCTTCTCTTTTTT [XGTACX_site8705]”, 8.75 ± 0.49; to “ATAAATTTTTTTTTTTTTTTTTTTCTTTTTCTTTGT [CACACA_negctrl_site1231]”, 8.38 ± 0.57.
The same measure for “AAATAATTTTTATTTGTACACACATACATATATATT [CACACA_site8240]”: 9.17 ± 0.47.
The same measure for “TAAATAAAGATATATACACACATATTTATATTTATA [CACACA_site6431]”: 8.76 ± 0.36.
In the case of “CATCATATAAATTCAAGTACAAGAAAAAGTAATATA [XGTACX_site2383]”, the “gcPBM binding intensity (ln)” value amounted to 8.72 ± 0.51.
As for “ACAAAATTGAAATTCACACAAAAACTATACTTTTTA [CACACA_site4638]”, the “gcPBM binding intensity (ln)” value came out at 8.48 ± 0.45.
The same measure for “ATATCTACTTTTTTATGTACGAAAAAAATACGGATT [XGTACX_site8937]”: 8.6 ± 0.38; for “TATGATATAATATACACACATACATATATATATATA [CACACA_site510]”: 9.58 ± 0.23.
“TTATTCATAAAAACAAAAAACAAAAATGAAATAGGA [CACACA_negctrl_site1123]”: the “gcPBM binding intensity (ln)” value worked out at 8.64 ± 0.54.
